# Assay results from the supplement of paper PMC8728848.
# The list shows a part of the results.
# B1: MIG/CXCL9 (Homo sapiens) (protein)
# chain: TPVVRKGRCSCISTNQGTIHLQSLKDLKQFAPSPSCEKIEIIIATLKNGVQTCLNPDSADVKELIKKTEKQVSQKKKQKNGKKHQKKKVLKVRKSQRSRQKKTT
# How the values were obtained:
# Experiment in all cases: glycan array binding signal (z-score within array); higher = stronger binding
# Details in all cases: glycan notation: IUPAC condensed, linker removed
# [1] = target: Neu5Ac(a2-3)Gal(b1-3)[Neu5Ac(a2-6)]GalNAc
# Outline: (§1)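 Glycan array data were curated from 3228 arrays in the Consortium for Functional Glycomics database and kept only where the protein sequence was available. Glycan names were converted to IUPAC-condensed notation, and columns mapping to the same glycan were averaged. The binding signal is a within-array Z-score, averaged across arrays of the same protein sequence at different concentrations or buffers and across linkers. Negative Z-scores can be read as non-binding.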
# [2] = target: Neu5Ac(a2-3)Gal(b1-4)Glc
# Outline: as §1
# [3] = target: Neu5Ac(a2-3)Gal(b1-4)GlcNAc
# Outline: as §1
# [4] = target: Neu5Ac(a2-3)Gal(b1-4)GlcNAc(b1-2)Man(a1-3)[Neu5Ac(a2-3)Gal(b1-4)GlcNAc(b1-2)Man(a1-6)]Man(b1-4)GlcNAc(b1-4)GlcNAc
# Outline: as §1
# [5] = target: Neu5Ac(a2-3)Gal(b1-4)GlcNAc(b1-3)Gal(b1-4)GlcNAc
# Outline: as §1
# [6] = target: Neu5Ac(a2-3)Gal(b1-4)GlcNAc(b1-3)Gal(b1-4)GlcNAc(b1-3)Gal(b1-4)GlcNAc
# Outline: as §1
# [7] = target: Neu5Ac(a2-3)Gal(b1-4)GlcNAc(b1-3)Gal(b1-4)[Fuc(a1-3)]GlcNAc
# Outline: as §1
# [8] = target: Neu5Ac(a2-3)Gal(b1-4)GlcNAc6S
# Outline: as §1
# [9] = target: Neu5Ac(a2-3)Gal(b1-4)[Fuc(a1-3)]GlcNAc
# Outline: as §1
# [10] = target: Neu5Ac(a2-3)Gal(b1-4)[Fuc(a1-3)]GlcNAc(b1-3)Gal
# Outline: as §1
# [11] = target: Neu5Ac(a2-3)Gal(b1-4)[Fuc(a1-3)]GlcNAc(b1-3)Gal(b1-4)GlcNAc
# Outline: as §1
# [12] = target: Neu5Ac(a2-3)Gal(b1-4)[Fuc(a1-3)]GlcNAc(b1-3)Gal(b1-4)[Fuc(a1-3)]GlcNAc(b1-3)Gal(b1-4)[Fuc(a1-3)]GlcNAc
# Outline: as §1
# [13] = target: Neu5Ac(a2-3)Gal(b1-4)[Fuc(a1-3)]GlcNAc6S
# Outline: as §1
# [14] = target: Neu5Ac(a2-3)Gal6S(b1-4)GlcNAc
# Outline: as §1
# [15] = target: Neu5Ac(a2-3)Gal6S(b1-4)[Fuc(a1-3)]GlcNAc
# Outline: as §1
# [16] = target: Neu5Ac(a2-3)GalNAc
# Outline: as §1
# [17] = target: Neu5Ac(a2-3)GalNAc(b1-4)GlcNAc
# Outline: as §1
# [18] = target: Neu5Ac(a2-3)[GalNAc(b1-4)]Gal(b1-4)Glc
# Outline: as §1
# [19] = target: Neu5Ac(a2-3)[GalNAc(b1-4)]Gal(b1-4)GlcNAc
# Outline: as §1
# [20] = target: Neu5Ac(a2-3)[Neu5Ac(a2-6)]GalNAc
# Outline: as §1
# [21] = target: Neu5Ac(a2-6)Gal
# Outline: as §1
# [22] = target: Neu5Ac(a2-6)Gal(b1-4)Glc
# Outline: as §1
# [23] = target: Neu5Ac(a2-6)Gal(b1-4)GlcNAc
# Outline: as §1
# [24] = target: Neu5Ac(a2-6)Gal(b1-4)GlcNAc(b1-3)Gal(b1-4)GlcNAc
# Outline: as §1
# [25] = target: Neu5Ac(a2-6)Gal(b1-4)GlcNAc(b1-3)Gal(b1-4)[Fuc(a1-3)]GlcNAc(b1-3)Gal(b1-4)[Fuc(a1-3)]GlcNAc
# Outline: as §1
# [26] = target: Neu5Ac(a2-6)Gal(b1-4)GlcNAc6S
# Outline: as §1
# [27] = target: Neu5Ac(a2-6)GalNAc
# Outline: as §1
# [28] = target: Neu5Ac(a2-6)GalNAc(b1-4)GlcNAc
# Outline: as §1
# [29] = target: Neu5Ac(a2-8)Neu5Ac
# Outline: as §1
# [30] = target: Neu5Ac(a2-8)Neu5Ac(a2-3)Gal(b1-4)Glc
# Outline: as §1
# [31] = target: Neu5Ac(a2-8)Neu5Ac(a2-3)[GalNAc(b1-4)]Gal(b1-4)Glc
# Outline: as §1
# [32] = target: Neu5Ac(a2-8)Neu5Ac(a2-8)Neu5Ac
# Outline: as §1
# [33] = target: Neu5Ac(a2-8)Neu5Ac(a2-8)Neu5Ac(a2-3)Gal(b1-4)Glc
# Outline: as §1
# [34] = target: Neu5Ac(a2-8)Neu5Ac(a2-8)Neu5Ac(a2-3)[GalNAc(b1-4)]Gal(b1-4)Glc
# Outline: as §1
# [35] = target: Neu5Ac(a2-8)Neu5Ac(a2-8)Neu5Ac(a2-8)Neu5Ac(a2-3)[GalNAc(b1-4)]Gal(b1-4)Glc
# Outline: as §1
# [36] = target: Neu5Ac(b1-6)GalNAc
# Outline: as §1
# [37] = target: Neu5Ac(b2-6)Gal(b1-4)GlcNAc
# Outline: as §1
# [38] = target: Neu5Ac9Ac(a2-6)Gal(b1-4)GlcNAc
# Outline: as §1
# [39] = target: Neu5Gc(a2-3)Gal(b1-3)GlcNAc
# Outline: as §1
# [40] = target: Neu5Gc(a2-3)Gal(b1-3)[Fuc(a1-4)]GlcNAc
# Outline: as §1
# [41] = target: Neu5Gc(a2-3)Gal(b1-4)Glc
# Outline: as §1
# [42] = target: Neu5Gc(a2-3)Gal(b1-4)GlcNAc
# Outline: as §1
# [43] = target: Neu5Gc(a2-3)Gal(b1-4)[Fuc(a1-3)]GlcNAc
# Outline: as §1
# [44] = target: Neu5Gc(a2-6)Gal(b1-4)GlcNAc
# Outline: as §1
# [45] = target: Neu5Gc(a2-6)GalNAc
# Outline: as §1
binder,measurement,setting,value
B1,glycan array binding signal (z-score),[1],-0.3
same,glycan array binding signal (z-score),[2],0.217
same,glycan array binding signal (z-score),[3],-0.152
same,glycan array binding signal (z-score),[4],0.04
same,glycan array binding signal (z-score),[5],-0.141
same,glycan array binding signal (z-score),[6],-0.264
same,glycan array binding signal (z-score),[7],-0.042
same,glycan array binding signal (z-score),[8],0.32
same,glycan array binding signal (z-score),[9],-0.196
same,glycan array binding signal (z-score),[10],-0.37
same,glycan array binding signal (z-score),[11],-0.11
same,glycan array binding signal (z-score),[12],-0.34
same,glycan array binding signal (z-score),[13],0.515
same,glycan array binding signal (z-score),[14],-0.121
same,glycan array binding signal (z-score),[15],-0.015
same,glycan array binding signal (z-score),[16],-0.254
same,glycan array binding signal (z-score),[17],-0.293
same,glycan array binding signal (z-score),[18],-0.337
same,glycan array binding signal (z-score),[19],-0.015
same,glycan array binding signal (z-score),[20],0.082
same,glycan array binding signal (z-score),[21],-0.181
same,glycan array binding signal (z-score),[22],-0.237
same,glycan array binding signal (z-score),[23],-0.194
same,glycan array binding signal (z-score),[24],-0.254
same,glycan array binding signal (z-score),[25],-0.183
same,glycan array binding signal (z-score),[26],0.527
same,glycan array binding signal (z-score),[27],-0.219
same,glycan array binding signal (z-score),[28],-0.161
same,glycan array binding signal (z-score),[29],-0.309
same,glycan array binding signal (z-score),[30],-0.233
same,glycan array binding signal (z-score),[31],-0.12
same,glycan array binding signal (z-score),[32],-0.218
same,glycan array binding signal (z-score),[33],-0.321
same,glycan array binding signal (z-score),[34],-0.353
same,glycan array binding signal (z-score),[35],-0.245
same,glycan array binding signal (z-score),[36],-0.402
same,glycan array binding signal (z-score),[37],-0.209
same,glycan array binding signal (z-score),[38],-0.239
same,glycan array binding signal (z-score),[39],-0.05
same,glycan array binding signal (z-score),[40],-0.4
same,glycan array binding signal (z-score),[41],-0.347
same,glycan array binding signal (z-score),[42],-0.249
same,glycan array binding signal (z-score),[43],-0.288
same,glycan array binding signal (z-score),[44],-0.309
same,glycan array binding signal (z-score),[45],-0.306
